Experimental data published in PMC6919601, “Identification of Plasmodium dipeptidyl aminopeptidase allosteric inhibitors by high throughput screening” (PLoS ONE, 2019).
The campaign covered roughly 110,000 compounds. About 230 (0.21%) showed an effect of 50% or more. This is one part of the list.

The molecules below were run against DPAP1 (Plasmodium falciparum, UniProt Q8IIJ9) (assay: primary screen, percent inhibition; read by cleavage of a fluorogenic dipeptide substrate; higher = more effect of the substance).
Parameters: species or system P. falciparum D10 trophozoite lysates; single well
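Also: 30 min substrate incubation versus DMSO and 10 µM JCP410 controls.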

DPAP1, sequence (Q8IIJ9 whole entry, looked up): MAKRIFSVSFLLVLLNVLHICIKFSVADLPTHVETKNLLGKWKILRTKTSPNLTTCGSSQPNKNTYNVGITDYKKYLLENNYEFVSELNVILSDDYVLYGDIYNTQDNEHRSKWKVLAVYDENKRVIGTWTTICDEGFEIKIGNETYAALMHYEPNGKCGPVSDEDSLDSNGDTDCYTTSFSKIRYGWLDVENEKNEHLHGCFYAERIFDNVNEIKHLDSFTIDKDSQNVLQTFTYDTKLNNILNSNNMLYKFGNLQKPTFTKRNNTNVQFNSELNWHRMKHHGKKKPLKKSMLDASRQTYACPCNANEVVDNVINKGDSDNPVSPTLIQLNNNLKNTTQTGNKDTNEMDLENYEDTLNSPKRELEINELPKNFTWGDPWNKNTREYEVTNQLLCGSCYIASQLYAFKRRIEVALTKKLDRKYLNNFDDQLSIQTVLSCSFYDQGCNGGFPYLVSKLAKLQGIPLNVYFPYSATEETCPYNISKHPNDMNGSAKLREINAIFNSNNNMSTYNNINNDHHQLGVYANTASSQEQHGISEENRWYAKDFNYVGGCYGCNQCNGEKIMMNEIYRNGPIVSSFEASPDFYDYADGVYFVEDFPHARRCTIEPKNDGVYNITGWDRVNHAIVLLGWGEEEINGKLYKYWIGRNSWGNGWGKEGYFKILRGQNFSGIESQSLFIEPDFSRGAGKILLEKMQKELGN

| Structure (SMILES) | % Inhibition @ 10 uM [%] |
| --- | --- |
| COc1ccccc1C(=O)N1CCN(C)CC1 | -0.233 |
| O=C1CCCC2=C1C(c1ccc3c(c1)OCO3)C1=C(CCCC1=O)O2 | 1.5 |
| C/N=C1\SC(CC(=O)Nc2cccc(C(=O)O)c2)C(=O)N1C (centres unmarked) | 5.37 |
| CCOc1ccccc1C1C(C#N)=C(N)Oc2ccc3ccccc3c21 (centres unmarked) | 8.08 |
| CCCC[C@H](NC(=O)C(Cc1c(F)cccc1F)NC(=O)c1ccc(-c2ccccc2Cl)cc1)C(=O)CC(=O)N1CCCC1 (some centres unmarked) | -3.48 |
| Cc1ccc(CN2CCN(CC(=O)NC3CCCCC3C)C2=O)cc1 (centres unmarked) | -4.16 |
| COC(=O)C1=CN(C(C)C)C=C(C(=O)OC)C1c1cccs1 | 4.99 |
| Cc1ccc2nc(NC(=O)Cn3cccc3)sc2c1 | -0.692 |
| COc1ccc2ccc(OC)c(/C=C3/NC(=O)NC3=O)c2c1 | 3.8 |
| Nc1nc2cc3sc(N)nc3cc2s1 | -4.11 |
| COc1ccc(Br)cc1C1N(c2cc(C)on2)C(=O)C2CCCN21 (centres unmarked) | 2.9 |
| O=S(=O)(c1cccc(-c2nc3ccccc3s2)c1)N1CCCCC1 | -3.88 |
| COc1ccccc1/C=C/C(=O)c1ccc2ccccc2c1 | 19.4 |
| CCC(Cc1cccc(O)c1)C(=O)O (centres unmarked) | 5.56 |
| COc1ccc(Cl)cc1NC(=O)c1c(Cl)c(C)nn1C | 2.01 |
| COc1ccc(S(=O)(=O)Cc2ccc(C(=O)N3CCc4ccccc4C3)o2)cc1 | 0.458 |
| CCC1CCCCN1C(=O)c1cc2c(-c3ccc(OC)c(OC)c3)nn(C)c2s1 (centres unmarked) | -0.499 |
| CC(C)CC(=O)/N=C1\SC2CS(=O)(=O)CC2N1Cc1ccccc1Cl (centres unmarked) | 0.558 |
| CC1(C)CC(=O)C2=C(C1)OC(N)=C(C#N)C2c1ccc2ccccc2c1 (centres unmarked) | -5.65 |
| N/C=C1\C(=O)NC(=O)N(c2ccc(C34CC5CC(CC(C5)C3)C4)cc2)C1=O | 7.04 |
| COc1ccccc1N1C(=O)CC(N2CCN(c3ccc(Cl)cc3)CC2)C1=O (centres unmarked) | -9.66 |
| COc1ccc(C2N(C(=O)c3ccccc3)CCN2S(=O)(=O)c2ccccc2)cc1 (centres unmarked) | 6.27 |
| CCC1(c2ccccc2)OC(=O)C2C3CCCCC3=C3CCCCC3C21 (centres unmarked) | 0.937 |
| C=CCNC(=O)C1CC=CCC1C(=O)NCc1ccccc1 (centres unmarked) | -0.216 |
| Cc1cccnc1NC(=O)Nc1ccc(F)cc1 | 2.38 |

| Structure (SMILES) | % Inhibition @ 10 uM [%] |
| --- | --- |
| Fc1ccc(F)c(CN2CCN(Cc3ccccc3)CC2)c1 | -1.41 |
| CC(C)CN1C(=O)c2ccccc2C(C(=O)NCc2ccc(F)cc2)C1c1cccs1 (centres unmarked) | 3.01 |
| Cc1ccc(-c2ccc(=O)n(CC(=O)N3CCN(C)CC3)n2)cc1 | 0.514 |
| Oc1cccc(CNc2ccc(F)c(Cl)c2)c1 | 1.08 |
| O=C(Nc1ccccn1)C1CCN(c2ncnc3c2nc2n3CCCCC2)CC1 | 4.61 |
| COc1cc2c(cc1OC)C(C)N(C(=O)Cn1ncc3c4ccccc4nc-3c1O)CC2 (centres unmarked) | 5.7 |
| COc1ccc(N2CCN(Cc3ccc([N+](=O)[O-])cc3)CC2)cc1 | 2.47 |
| Cc1ccc2c(c1)Cc1c(O)nc(-c3ccc(F)cc3)nc1O2 | -4.68 |
| CCOc1ccc(/C=C2\SC(N3CCN(Cc4ccccc4)CC3)=NC2=O)cc1OCC | -1.81 |
| O=S(=O)(NCc1ccc2c(c1)OCO2)c1cccc(F)c1 | -6.65 |
| C=Cc1ccc(Cn2c(C(=O)O)c(CNCc3cc(OC)c(OC)c(OC)c3)c3ccccc32)cc1 | -1.38 |
| CCCS(=O)(=O)N1CCCC(C(=O)NCCN2CCOCC2)C1 (centres unmarked) | -7.35 |
| CCS(=O)(=O)N1CCC2(CC1)OC(=O)C(C)=C2C(=O)NCC1CCCO1 (centres unmarked) | 0.185 |
| Cc1ccsc1/C=C1/NC(=O)N(Cc2ccccc2F)C1=O | 4.85 |
| Cc1cc2c(C)cc(=O)oc2c2c1NCCC2 | -2.91 |
| Cc1cccc(CN2C(=O)N/C(=C/c3cccs3)C2=O)c1 | -7.83 |
| COc1cccc(-n2c(SCC(=O)NCCc3ccccc3)nc3nnc(C)c-3c2N)c1 | 4.35 |
| CCn1c(SCC(N)=O)nc2c(c1=O)SCC2 | 2.54 |
| CC(C)c1ccc(NC(=O)c2cccc(F)c2)cc1 | -0.636 |
| N#CC1=C(N)Oc2[nH]nc(-c3ccc(F)cc3)c2C1c1ccncc1 (centres unmarked) | 5.48 |
| COC(=O)C1=C(C)OC(N)=C(C#N)C12C(=O)Nc1ccccc12 (centres unmarked) | -1.37 |
| Cc1cccc(C)c1N1C(=O)C(Cl)=C(N2CCCCCC2)C1=O | 3.72 |
| CCN1CCC2(CC1)OC(=O)C(C)=C2C(=O)NCCc1ccccc1 | 0.297 |
| CCOc1ccc(N(CC(=O)Nc2ccccc2C(=O)O)S(C)(=O)=O)cc1 | 6.69 |
| N#Cc1ccccc1CN1C(=O)S/C(=C/c2ccco2)C1=O | -6.16 |
